# In all, about 360,000 compounds went through this assay and about 16,000 (4.4%) were called active. The shares of active, inactive and inconclusive entries below differ from those in the screen. Calls come from the whole dose curve; as a rule, active = well fitted inhibition curve with a large enough effect; inconclusive = small, poorly fitted or top-dose-only effect; inactive = no such curve, though single readings can be large or run the other way. A potency beside an inconclusive call is a rough fit, not a confirmed value.
# Target: Bromodomain adjacent to zinc finger domain protein 2B (Homo sapiens) (UniProt Q9UIF8)
# Sequence of UniProt Q9UIF8 (Q9UIF8 whole entry, looked up, the tested form may be a part): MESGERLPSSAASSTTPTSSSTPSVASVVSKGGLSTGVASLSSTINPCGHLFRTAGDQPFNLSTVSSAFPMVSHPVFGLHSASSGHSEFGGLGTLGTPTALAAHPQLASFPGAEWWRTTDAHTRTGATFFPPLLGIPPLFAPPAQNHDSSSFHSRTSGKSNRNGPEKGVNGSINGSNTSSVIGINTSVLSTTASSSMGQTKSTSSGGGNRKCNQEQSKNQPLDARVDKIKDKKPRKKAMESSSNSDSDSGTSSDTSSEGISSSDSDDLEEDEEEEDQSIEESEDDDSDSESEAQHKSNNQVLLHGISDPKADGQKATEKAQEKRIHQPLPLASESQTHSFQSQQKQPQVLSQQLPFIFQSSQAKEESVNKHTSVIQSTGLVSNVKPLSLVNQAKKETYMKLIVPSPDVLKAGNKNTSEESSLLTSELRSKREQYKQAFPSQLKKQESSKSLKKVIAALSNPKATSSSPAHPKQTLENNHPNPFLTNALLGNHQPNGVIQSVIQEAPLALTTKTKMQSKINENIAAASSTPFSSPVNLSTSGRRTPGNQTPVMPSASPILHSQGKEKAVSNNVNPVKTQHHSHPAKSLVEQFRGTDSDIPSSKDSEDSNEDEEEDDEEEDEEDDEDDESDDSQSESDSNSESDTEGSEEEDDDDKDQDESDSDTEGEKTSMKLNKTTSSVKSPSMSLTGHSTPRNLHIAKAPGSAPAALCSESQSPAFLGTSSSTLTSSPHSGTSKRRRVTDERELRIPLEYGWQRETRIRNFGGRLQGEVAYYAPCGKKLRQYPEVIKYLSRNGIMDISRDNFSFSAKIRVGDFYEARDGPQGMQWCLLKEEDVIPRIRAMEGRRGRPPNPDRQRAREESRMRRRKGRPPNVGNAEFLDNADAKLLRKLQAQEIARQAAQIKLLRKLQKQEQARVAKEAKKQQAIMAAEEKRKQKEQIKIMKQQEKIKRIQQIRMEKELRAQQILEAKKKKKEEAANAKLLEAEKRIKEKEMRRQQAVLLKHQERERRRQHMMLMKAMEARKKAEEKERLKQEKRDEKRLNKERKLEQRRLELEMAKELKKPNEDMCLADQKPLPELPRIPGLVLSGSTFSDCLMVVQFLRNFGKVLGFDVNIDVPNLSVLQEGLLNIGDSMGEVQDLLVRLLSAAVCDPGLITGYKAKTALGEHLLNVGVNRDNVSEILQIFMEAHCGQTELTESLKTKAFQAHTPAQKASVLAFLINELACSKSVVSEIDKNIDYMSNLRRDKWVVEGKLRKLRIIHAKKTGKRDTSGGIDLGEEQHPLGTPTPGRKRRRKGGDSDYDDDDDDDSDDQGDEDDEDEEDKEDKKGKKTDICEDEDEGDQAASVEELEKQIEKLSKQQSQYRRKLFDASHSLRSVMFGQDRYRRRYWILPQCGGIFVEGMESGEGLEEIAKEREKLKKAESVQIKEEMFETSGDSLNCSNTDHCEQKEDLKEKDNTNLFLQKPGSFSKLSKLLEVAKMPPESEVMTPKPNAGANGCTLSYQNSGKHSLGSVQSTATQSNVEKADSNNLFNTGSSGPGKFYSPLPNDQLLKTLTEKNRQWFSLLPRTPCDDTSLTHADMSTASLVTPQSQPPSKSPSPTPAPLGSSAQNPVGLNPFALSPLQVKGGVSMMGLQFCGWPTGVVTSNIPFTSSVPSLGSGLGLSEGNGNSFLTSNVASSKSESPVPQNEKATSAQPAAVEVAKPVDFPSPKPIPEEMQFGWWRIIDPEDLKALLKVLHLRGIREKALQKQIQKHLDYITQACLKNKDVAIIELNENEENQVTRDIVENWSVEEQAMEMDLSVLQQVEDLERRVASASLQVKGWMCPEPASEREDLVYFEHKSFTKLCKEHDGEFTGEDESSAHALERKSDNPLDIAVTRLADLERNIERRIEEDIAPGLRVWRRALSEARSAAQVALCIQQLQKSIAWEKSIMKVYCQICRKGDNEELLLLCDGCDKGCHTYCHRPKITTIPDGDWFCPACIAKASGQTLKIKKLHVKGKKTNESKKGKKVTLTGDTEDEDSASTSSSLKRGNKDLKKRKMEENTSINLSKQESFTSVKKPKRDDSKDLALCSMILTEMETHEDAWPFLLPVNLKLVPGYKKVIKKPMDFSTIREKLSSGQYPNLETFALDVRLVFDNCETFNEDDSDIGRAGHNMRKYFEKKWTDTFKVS
# Assay: qHTS Assay for Inhibitors of BAZ2B; note: nearly all actives have a fitted effect of over 60% in size
# Settings: AlphaScreen BAZ2B-H3K14Ac peptide displacement; series mostly up to 114 µM
# In short: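 Complex of BAZ2B and biotin-H3K14Ac (50 nM apiece) forms over 30 min at RT, then faces library compounds up to 110 uM for another 30 min; AlphaScreen beads added, 20 min dark incubation, luminescence read.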
# Potency is the fitted concentration of half-maximal effect; tags give direction and shape of the fitted curve.
row,Compound,Potency
1,Cn1cccc1/C=C1\SC(=S)N(Nc2ccccc2)C1=O,active: 20 µM
2,COc1ccc(C(N)CCc2ccc(C)o2)cc1 (configuration not stated),"inconclusive: 50.1 µM [inhibitor, partial curve]"
3,COc1ccccc1C(=O)Nc1nc(N)n(-c2ccccc2)n1,"inconclusive: 100 µM [inhibitor, single point]"
4,O=C(CSc1nccn1-c1ccccc1)c1ccc(Cl)cc1,"inconclusive: 8.91 µM [inhibitor, full curve]"
5,CC1CCN(c2ccc(NC(=O)c3cccc(Cl)c3)cc2C(=O)O)CC1,"inconclusive: 79.4 µM [inhibitor, partial curve]"
6,CC(=O)N1CCSc2ccc(S(=O)(=O)NCCc3ccc(C)cc3)cc21,inactive
7,O=C(N/N=C/C=C/c1ccccc1)c1ccccn1,"inconclusive: 100 µM [inhibitor, single point]"
8,CCCS(=O)(=O)c1ncc(Cl)c(C(=O)N2CCN(c3ccc(OC)cc3)CC2)n1,inactive
9,CC1C(=O)Nc2ccccc2N1C(=O)C1CC1 (configuration not stated),inactive
10,COC(=O)c1ccc(NC(=O)c2ccc(NC(=O)c3ccco3)cc2)cc1,"inconclusive: 79.4 µM [inhibitor, single point]"
11,O=[N+]([O-])c1cccc(NC(=S)N2CCc3ccccc3C2)c1,"inconclusive: 70.8 µM [inhibitor, partial curve]"
12,O=S(=O)(Cc1noc(-c2ccc(Cl)cc2)n1)Cc1ccco1,"inconclusive: 79.4 µM [inhibitor, single point]"
13,COc1cc(/C=C2\SC(=O)N(CC(=O)Nc3ccccc3F)C2=O)cc(Cl)c1O,"inconclusive: 79.4 µM [inhibitor, single point]"
14,NC(=O)C1CCN(C(=O)C2c3ccccc3C(=O)N3CCc4ccccc4C23)CC1 (configuration not stated),"inconclusive: 89.1 µM [inhibitor, partial curve]"
15,CCC(=O)Nc1ccc(C2C(=O)c3ccccc3C2=O)cc1,"inconclusive: 56.2 µM [inhibitor, partial curve]"
16,O=C(O)c1cc(S(=O)(=O)NC(Cc2c[nH]c3ccccc23)C(=O)O)ccc1Cl (configuration not stated),inactive
17,CCN(CC)c1ccc(NC(=O)Cn2cc3c(n2)CCC(C)C3)c(C)c1 (configuration not stated),"inconclusive: 31.6 µM [inhibitor, full curve]"
18,Nc1cccc(CCc2ccncc2)c1,"inconclusive: 89.1 µM [inhibitor, single point]"
19,COC(=O)c1ccccc1NC(=O)CSc1cc(-c2ccccc2)nc(C)n1,inactive
20,O=C(C1CCCN(S(=O)(=O)c2cccc3nonc23)C1)N1CCN(c2ccccc2F)CC1 (configuration not stated),inactive
21,CCOc1ccc(NC(=O)[C@@H](NC(=O)c2ccccc2)[C@@H](C)CC)cc1,"inconclusive: 8.91 µM [inhibitor, single point]"
22,CCCCN(C)C(=O)C1CCN(c2ccc(S(=O)(=O)N3CCOCC3)cc2[N+](=O)[O-])CC1,"inconclusive: 89.1 µM [inhibitor, single point]"
23,COC(=O)c1sc(S(=O)(=O)NCC(=O)O)c(C(=O)OC)c1C,"inconclusive: 89.1 µM [inhibitor, single point]"
24,Cc1cccc(NCc2n[nH]c(=S)n2-c2ccccc2)c1,"inconclusive: 79.4 µM [inhibitor, single point]"

row,Compound,Potency
1,O=C(CN(Cc1ccc(F)cc1)C(=O)C1CSC(=O)C1)NC1CCCCC1 (configuration not stated),inactive
2,CCN1C(=O)[C@H]2[C@@H](c3ccc(OC)cc3)N3C(=O)CN(CCOC)C(=O)[C@@]3(C)[C@H]2C1=O,inactive
3,CCc1nnc(NC(=O)C2Cc3ccccc3CN2S(=O)(=O)c2ccc(C)cc2)s1 (configuration not stated),"inconclusive: 79.4 µM [inhibitor, single point]"
4,O=C(O)c1nccnc1C(=O)Nc1ccccc1-c1ccccc1,"inconclusive: 79.4 µM [inhibitor, single point]"
5,CCOC(=O)Cc1csc(NC(=O)c2ccc(N3CCOCC3)cc2[N+](=O)[O-])n1,"inconclusive: 70.8 µM [inhibitor, single point]"
6,CS(=O)(=O)Nc1ccc2c(c1)ncn2CCc1ccccc1,inactive
7,COc1ccc(C(=O)c2ccc(Cl)c([N+](=O)[O-])c2)cc1,"inconclusive: 50.1 µM [inhibitor, partial curve]"
8,Cc1ccc(S(=O)(=O)N(C)C)cc1NC(=O)c1cc(-c2ccco2)nc2ccccc12,"inconclusive: 50.1 µM [inhibitor, partial curve]"
9,CCOc1cc(/C=N/N2CCN(Cc3ccccc3)CC2)ccc1O,"inconclusive: 50.1 µM [inhibitor, partial curve]"
10,O=C(O)c1ccc2c(=O)n3cc(C(=O)c4ccccc4O)cc(Cl)c3nc2c1,"inconclusive: 89.1 µM [inhibitor, single point]"
11,COc1ccc(C)cc1NC(=O)c1ccc(OC(F)F)cc1,inactive
12,O=C1CC(=Nc2ccccc2)NN1c1ccccc1,"inconclusive: 50.1 µM [inhibitor, partial curve]"
13,COc1ccc(NC(=O)c2c(NC(=O)c3cccc(C)c3)sc3c2CCC3)cc1,inactive
14,COc1cccc(CNC(=O)c2ccc3oc(=O)n(Cc4ccccc4)c3c2)c1,inactive
15,COc1ccc(OC)c(NC(=O)CCNS(=O)(=O)c2cccc3nonc23)c1,inactive
16,COc1ccc(-c2nc(NC(=O)C3CC(=O)N(c4ccc5c(c4)OCCO5)C3)sc2C)cc1 (configuration not stated),"inconclusive: 39.8 µM [inhibitor, full curve, poor fit]"
17,O=C(O)CSc1cc(NS(=O)(=O)c2cccc([N+](=O)[O-])c2)c2ccccc2c1O,"inconclusive: 50.1 µM [inhibitor, partial curve]"
18,Cc1ccc(N/C=C(\[N+](=O)[O-])S(=O)(=O)c2ccccc2)cc1,inactive
19,NCCCCCc1nnc(SCc2ccc(Cl)cc2Cl)o1,inactive
20,Cc1cccc(C)c1N1CCN(S(=O)(=O)N2CCOCC2)CC1,"inconclusive: 79.4 µM [inhibitor, single point]"
21,Nc1nnc(-c2cccc([N+](=O)[O-])c2)s1,inactive
22,N#CN=C1SCCS1,inactive
23,Cc1ccc(S(=O)(=O)N(C)c2ccc(C(=O)N(C)Cc3nc4ccccc4c(=O)[nH]3)cc2)cc1,"inconclusive: 89.1 µM [inhibitor, single point]"

# Source: PubChem BioAssay AID504333 (National Center for Advancing Translational Sciences (NCATS), 2011)
